Experimental data from paper PMC4336329 (PLoS ONE, 2015).
The whole screen tested about 310,000 compounds, of which about 2,200 (0.71%) showed an effect of 50% or more. The effect is printed as a negative number. The list shows a part of the results.

Target: human ether-à-go-go-related gene (hERG) potassium channel (human, UniProt Q12809)
Experiment: primary screen, population patch clamp on CHO cells stably expressing hERG

human ether-à-go-go-related gene (hERG) potassium channel, sequence (Q12809 whole entry, looked up): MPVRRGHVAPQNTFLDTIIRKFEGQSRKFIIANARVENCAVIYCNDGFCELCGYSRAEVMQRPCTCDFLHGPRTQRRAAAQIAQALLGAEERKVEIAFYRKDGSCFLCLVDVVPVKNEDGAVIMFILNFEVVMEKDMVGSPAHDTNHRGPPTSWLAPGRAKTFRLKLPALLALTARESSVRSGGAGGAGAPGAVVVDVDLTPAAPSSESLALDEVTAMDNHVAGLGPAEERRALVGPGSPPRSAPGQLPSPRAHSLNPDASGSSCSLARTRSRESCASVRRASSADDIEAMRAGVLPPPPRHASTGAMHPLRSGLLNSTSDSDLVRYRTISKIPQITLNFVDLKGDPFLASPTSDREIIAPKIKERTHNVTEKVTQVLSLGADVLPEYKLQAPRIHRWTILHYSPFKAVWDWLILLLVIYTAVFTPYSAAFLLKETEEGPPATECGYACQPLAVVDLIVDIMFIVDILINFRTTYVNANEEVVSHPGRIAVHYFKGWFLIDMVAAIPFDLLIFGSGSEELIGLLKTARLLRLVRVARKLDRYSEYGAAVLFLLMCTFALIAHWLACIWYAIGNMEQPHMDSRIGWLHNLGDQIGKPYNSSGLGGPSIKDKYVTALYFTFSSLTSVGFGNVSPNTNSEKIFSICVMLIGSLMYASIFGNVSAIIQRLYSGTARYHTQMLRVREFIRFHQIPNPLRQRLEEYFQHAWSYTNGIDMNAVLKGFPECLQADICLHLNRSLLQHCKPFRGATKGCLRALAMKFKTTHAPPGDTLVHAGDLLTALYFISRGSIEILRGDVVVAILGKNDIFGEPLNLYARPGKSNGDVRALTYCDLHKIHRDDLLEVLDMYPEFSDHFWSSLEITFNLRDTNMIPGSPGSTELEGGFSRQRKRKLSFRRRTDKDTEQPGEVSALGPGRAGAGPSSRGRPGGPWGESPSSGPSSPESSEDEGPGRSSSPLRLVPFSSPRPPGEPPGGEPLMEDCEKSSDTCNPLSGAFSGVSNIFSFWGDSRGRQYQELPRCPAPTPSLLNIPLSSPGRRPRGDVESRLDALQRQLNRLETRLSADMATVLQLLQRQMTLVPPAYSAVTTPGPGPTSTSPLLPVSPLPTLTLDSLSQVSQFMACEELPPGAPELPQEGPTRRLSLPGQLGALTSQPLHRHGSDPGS

SMILES	hERG current change (%, negative = inhibition) at 1uM [%]
CCOC(=O)N1CCN(C(=O)C(C)NC(=O)c2ccco2)CC1 (stereo not drawn)	12.1
CCN1CCN(C(=S)c2ccc(Br)cc2)CC1	-23.3
O=C(/C=C/c1ccc2c(c1)OCO2)Nc1nc(-c2ccc(F)cc2F)cs1	10.5
CC(CC(=O)NCc1ccc(Cl)cc1)c1ccccc1 (stereo not drawn)	10.4
O=C(COC(=O)Cn1cnc2ccccc21)NCc1ccc(F)cc1	17.3
CC(=O)N1CCCc2cc(S(=O)(=O)N3CCc4ccccc4C3)ccc21	2.29
CN1CCN(CCC(=O)Nc2ccc(OCc3ccccc3)cc2)CC1	-20.8
Cc1cccc(C)c1NC(=O)Nc1ccc(S(N)(=O)=O)cc1	18.5
Cc1ccc2nc(SCC(=O)Nc3cccc(F)c3)nc(=O)n2c1	-9.78
Cc1ccccc1NCC(=O)N/N=C/C(Br)=C/c1ccccc1	8.19
CCC(C)NS(=O)(=O)c1ccc(S(=O)(=O)N(CC(=O)Nc2ccccc2)Cc2ccco2)cc1 (stereo not drawn)	9.63
CN1C(=O)c2ccccc2NC(=O)C1Cc1ccccc1 (stereo not drawn)	35.9
CCOc1c(Cl)cc(CNCc2ccncc2)cc1OC.Cl	6.19
CC1Cc2ccccc2N1C(=O)COC(=O)c1n[nH]c(=O)c2ccccc12 (stereo not drawn)	3.48
CC(C)C(=O)Nc1cccc(NC(=O)c2cc3ccccc3o2)c1	-2.08
COc1ccc(Cl)cc1NC(=O)c1cnc2sccn2c1=O	14.5
O=C(NC(=S)N1CCN(C/C=C/c2ccccc2)CC1)c1cccnc1	8.16
COc1ccc(CNC(=O)/C=C/c2ccc(OCCCF)cc2)cc1	2.56
O=S1(=O)CCOC[C@H](CC2CCCCC2)N1Cc1ccccc1F	9.08

SMILES	hERG current change (%, negative = inhibition) at 1uM [%]
COc1cc2c(cc1OC)CN(C(=O)c1sc(-c3cnccn3)nc1C)CC2	12.1
CCCCCn1c(=O)c(C(=O)Nc2nc(CC(=O)OCC)cs2)c(O)c2ccccc21	10.7
COc1nc(-c2ccccc2)nc(-c2ccccc2)c1C	10.3
Cc1cccc(NC(=O)CCC(=O)Nc2nnc(C(F)(F)F)s2)c1	10.2
COC(=O)CCN1CCN(S(=O)(=O)c2cccc(Br)c2)CC1	6.75
CCN(CC)CCNC(=O)c1cn(C)c2ccc(S(=O)(=O)N(C)C3CCCCC3)cc2c1=O	-6.39
O=C(COc1ccccc1)N1CCN(S(=O)(=O)c2ccc(Cl)cc2)CC1	-2.21
CCCCCOP(=O)(OCCCCC)C1(NS(=O)(=O)c2ccccc2)C=CC(=O)c2ccccc21 (stereo not drawn)	14.2
CCN1CCCC1CNCC(O)COc1ccc(C(C)(C)C)cc1C.O=C(O)C(=O)O (stereo not drawn)	-17.5
Cc1cc(Oc2ccc(Cl)cc2)nc(SCC(=O)c2ccccc2)n1	10.1
CC1=NN(C(=O)Cc2ccccc2)C(O)(c2ccccc2)C1 (stereo not drawn)	14.6
COc1ccc(C(=O)C[n+]2cn(C(F)F)c3ccccc32)c(F)c1.[Br-]	-0.738
Cc1ccc(S(=O)(=O)NCCCCCC(=O)Nc2ccccn2)cc1	-3.7
COc1ccc(CNC(=O)C(=O)NCc2cccnc2)cc1	1.65
O=C(NCc1cccc(F)c1)C1CCC(=O)N(CC2CCCCC2)C1 (stereo not drawn)	9.16
Cc1ccc(/C=N/NC(=O)c2sccc2OCc2ccc(F)cc2)cc1	17.7
COc1cccc(-n2nnc3c(=O)n(Cc4ccccc4Cl)cnc32)c1	5.51
CC(C)(C)c1ccc(C(=O)O/N=C(\N)c2ccccn2)cc1	13.9
O=C(NCc1cccc(Cl)c1)c1ccco1	-8.55

SMILES	hERG current change (%, negative = inhibition) at 1uM [%]
O=C(Nc1nc(-c2ccccc2)cs1)C1c2ccccc2Oc2ccccc21	4.9
Cc1ccc(-n2c(N)cc(=O)nc2SCC(=O)NC2CCCCC2)cc1C	8.34
Cc1sc(-c2ccccn2)nc1OC(=O)c1ccc(F)cc1F	16.2
Cc1cc(C2=NNC(=Nc3ccc(S(=O)(=O)N4CCOCC4)cc3)SC2)c(C)n1C	1.56
CCCc1cc(C(=O)OC)c(NC(=O)OCC)s1	-0.13
C=CCNc1nc(C(=O)OCC(=O)N(Cc2ccccc2)C(C)C)cs1	6.35
COC/C=C/C1=CC2=CC(=O)C(C)(OC(=O)c3cnc4ccccc4n3)C(=O)C2=CN1CC1CC1 (stereo not drawn)	8.99
O=C1CCC(=O)N(c2ccccc2)N1	13.9
NS(=O)(=O)c1ccc(CNC(=O)c2ccc(Cl)c(S(=O)(=O)NCc3ccccc3)c2)cc1	13.8
COc1ccc(/C=C(/NC(=O)/C=C/c2ccccc2)C(=O)N2CCOCC2)cc1	-34.9
COc1ccccc1C(=O)Nc1ccnn1C1CCN(C(=O)C2CCOC2)CC1 (stereo not drawn)	4.19
Nc1nnc(SCc2c(F)cccc2Cl)s1	10.9
Cc1ccccc1CN(c1ccc(C(=O)NCc2cccnc2)cc1)S(C)(=O)=O	14.1
O=C(NC(=O)N1CCCC1)c1csnn1	16.2
COc1ccc(CNC(=S)N/N=C/c2ccc(OC)c(OC)c2)cc1	2.4
O=S(=O)(Nc1cccc2ccccc12)c1cccc2nonc12	12
Cc1ccc2nc3c(cc2c1)CN(Cc1ccco1)C(=NCC1CCCO1)S3 (stereo not drawn)	5.19
C/C=C(/C)C(=O)Nc1cccc(C2=NOC3(C2)C[C@H](C(N)=O)N(C(=O)Cc2ccc([N+](=O)[O-])cc2)C3)c1 (stereo partly drawn)	4.52
Nc1nnc(SCC(=O)OCc2ccc(Cl)c(Cl)c2)s1	13.8
